# About 2,200 (0.71%) of roughly 310,000 compounds showed an effect of 50% or more. Effects have a minus sign here. The list shows a part of the results.
# Biological target: human ether-à-go-go-related gene (hERG) potassium channel (human, UniProt Q12809)
# Assay: primary screen, population patch clamp on CHO cells stably expressing hERG
# Sequence of human ether-à-go-go-related gene (hERG) potassium channel (Q12809 whole entry, looked up): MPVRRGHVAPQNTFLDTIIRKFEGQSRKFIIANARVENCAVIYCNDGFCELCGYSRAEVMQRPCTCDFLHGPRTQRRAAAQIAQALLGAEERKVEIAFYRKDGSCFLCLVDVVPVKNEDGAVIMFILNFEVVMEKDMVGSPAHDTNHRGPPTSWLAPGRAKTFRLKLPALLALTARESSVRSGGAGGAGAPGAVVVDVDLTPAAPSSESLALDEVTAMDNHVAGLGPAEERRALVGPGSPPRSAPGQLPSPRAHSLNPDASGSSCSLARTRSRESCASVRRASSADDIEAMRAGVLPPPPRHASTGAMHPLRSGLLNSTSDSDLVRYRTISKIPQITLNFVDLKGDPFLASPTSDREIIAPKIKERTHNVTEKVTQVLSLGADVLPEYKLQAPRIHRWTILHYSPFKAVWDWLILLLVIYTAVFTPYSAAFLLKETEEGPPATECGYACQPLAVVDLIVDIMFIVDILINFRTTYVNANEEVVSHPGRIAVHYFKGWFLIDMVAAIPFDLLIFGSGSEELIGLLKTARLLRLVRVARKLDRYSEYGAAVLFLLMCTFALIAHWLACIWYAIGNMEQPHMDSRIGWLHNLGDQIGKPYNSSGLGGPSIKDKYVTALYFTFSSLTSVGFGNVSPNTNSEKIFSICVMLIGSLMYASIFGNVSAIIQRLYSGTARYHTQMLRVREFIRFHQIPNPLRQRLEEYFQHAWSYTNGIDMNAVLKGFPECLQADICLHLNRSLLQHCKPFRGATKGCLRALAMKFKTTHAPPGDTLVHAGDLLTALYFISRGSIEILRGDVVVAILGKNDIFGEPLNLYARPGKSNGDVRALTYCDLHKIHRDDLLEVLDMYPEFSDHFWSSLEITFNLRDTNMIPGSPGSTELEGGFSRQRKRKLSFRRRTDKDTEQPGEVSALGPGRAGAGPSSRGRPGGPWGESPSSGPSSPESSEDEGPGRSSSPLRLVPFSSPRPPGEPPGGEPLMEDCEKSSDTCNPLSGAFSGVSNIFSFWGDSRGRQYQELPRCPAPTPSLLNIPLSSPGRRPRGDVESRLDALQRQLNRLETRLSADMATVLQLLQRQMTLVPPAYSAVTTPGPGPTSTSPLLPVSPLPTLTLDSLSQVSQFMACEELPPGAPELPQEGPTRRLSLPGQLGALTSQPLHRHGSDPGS
row,Structure (SMILES),"hERG current change (%, negative = inhibition) at 1uM [%]"
1,Cc1ccc(S(=O)(=O)N2CCN(C(C)C(=O)Nc3ccccc3-c3ccccc3)CC2)cc1 (stereo not drawn),1.53
2,CCOc1ccc(CCNC(=O)COC(=O)C2CC2)cc1OCC,3.24
3,Cc1cccc(OCC(=O)Nc2nc(-c3ccncc3)cs2)c1,8.13
4,COC(=O)c1ccccc1NC(=O)Nc1ccc(C(=O)N2CCCC2)cc1,2.47
5,CCN(CC)C(=O)Cn1cc(S(=O)(=O)CC(=O)Nc2ccc(OC)c(OC)c2)c2ccccc21,0.334
6,Cc1cc(C)cc(-n2nnnc2SCC(=O)Nc2nc(-c3ccc(F)cc3)cs2)c1,5.7
7,O=C(NCC1CCCCC1)c1ccc(Br)o1,16.5
8,CCC(C)NC(=O)CN1C(=O)NC2NC(=O)NC21 (stereo not drawn),15
9,Cn1cc(CNCc2ccc(OC(F)(F)F)cc2)c(-c2ccc3c(c2)OCCO3)n1,6.43
10,O=C(Nc1ccccc1)NC1CCN(CCCN2C(=O)c3ccccc3C2=O)CC1,-21.8
11,CC(C)(C)NS(=O)(=O)c1ccc(NC(=S)NC(=O)C2CCC2)cc1,14.3
12,O=C(Cn1cncc1-c1ccc([N+](=O)[O-])cc1)Nc1cccc2ccccc12,16.5
13,CC(=O)Nc1ccccc1NC(=O)C/C(C)=N/NC(=O)c1ccncc1,15.2
14,O=C(NCCCN1CCOCC1)c1cccs1,15.9
15,COc1ccc(N2CCN(Cc3nc(N)nc(Nc4ccccc4OC)n3)CC2)cc1,-14.5
16,CCOC(=O)n1n[n+]([O-])c2ccccc21,24.6
17,COc1ccc(C(=O)N2CCN(S(=O)(=O)c3ccc(C)cc3C)CC2)cc1OC,2.34
18,Cc1cccc(C)c1NC(=O)CN(C)C(=O)CCc1nc2sc3c(c2c(=O)[nH]1)CCCC3,13.4
19,CCCN1CCc2c(sc(NC(=O)CCS(=O)(=O)c3ccccc3)c2C(=O)OC)C1.Cl,-33.1

row,Structure (SMILES),"hERG current change (%, negative = inhibition) at 1uM [%]"
1,Clc1ccc(-c2nnc(SCc3ccon3)o2)c(Cl)c1,4.17
2,O=C(COc1ccc([N+](=O)[O-])cc1)Nc1ccc(N2CCCC2)cc1,10.6
3,Cn1cccc1C1(C(F)(F)F)NCCNC1=O (stereo not drawn),10
4,CCc1cccc(NS(=O)(=O)c2c(C)n[nH]c2C)c1.Cl,8.15
5,CC(C)CCNC(=O)c1ccc2c(Cl)c3c(nc2c1)CCC3,15.3
6,Nc1nc2ccc(-c3nc4ccccc4o3)cc2s1,11.2
7,CCOC(=O)C(C(=O)Nc1nc2ccccc2s1)C1CCCCC1 (stereo not drawn),16
8,CCOC(=O)c1ccc(NC(=O)c2nccnc2C(=O)O)cc1,6.66
9,O=C(Nc1nnc(-c2ccccc2Cl)o1)c1nc2ccccc2s1,2.97
10,Cl.Nc1cnccc1Oc1cccc(C(F)(F)F)c1,6.26
11,Cc1ccc(NC(=O)c2cccc(S(=O)(=O)N3CCCCC3)c2)cc1,14.4
12,CCCC(C(=O)NCc1ccco1)N(C(=O)CNS(=O)(=O)c1ccccc1)C1CCCC1 (stereo not drawn),5.48
13,Clc1ccc(-c2ccc(CN3CCCCC3)o2)cc1,12.4
14,Cc1cc2c(n1-c1ccc(Br)cc1)CC(C)(C)CC2=O,3.2
15,Cc1ccnc(NC(=O)c2cccc(S(=O)(=O)NCc3ccccc3)c2)c1,12.6
16,Nc1c(C(=O)NC2CCCCC2)nsc1C(=O)OCC(=O)NC1CCCCC1,15.3
17,COc1ccccc1NC(=O)c1cc2c(CO)cnc(C)c2oc1=Nc1ccccc1,14
18,CN(Cc1nccs1)C(=O)C1CCC(=O)N(Cc2ccccc2F)C1 (stereo not drawn),7.29
19,COCCOC(=O)c1c(C)oc2ccc(OC(=O)c3cccs3)cc12,12.9

row,Structure (SMILES),"hERG current change (%, negative = inhibition) at 1uM [%]"
1,Cc1cccc(N2CC(c3nc4ccccc4[nH]3)CC2=O)c1 (stereo not drawn),6.24
2,COc1ccc(OCCOc2ccccc2[N+](=O)[O-])cc1,5.72
3,CCC(C)(C)NC(=O)c1ccccc1Oc1ccccc1,6.02
4,CC(=O)Nc1c(I)c(NC(C)=O)c(I)c(C(=O)O)c1I.CNC[C@H](O)[C@@H](O)[C@H](O)[C@H](O)CO,17.7
5,COC(=O)c1ccc(C(C(=O)NCc2ccccc2)N(Cc2ccco2)C(=O)c2cnccn2)cc1 (stereo not drawn),-0.742
6,CC1C(C)N1CC(O)Cn1ccnc1[N+](=O)[O-] (stereo not drawn),6.59
7,O=C(O)c1ccccc1NC(=O)C(Cc1ccccc1)N1C(=O)c2ccccc2C1=O (stereo not drawn),17
8,CN(C(=O)CN1C(=O)CCSc2ccc(S(=O)(=O)N3CCCC3)cc21)c1ccccc1,2.25
9,Cc1cc([N+](=O)[O-])nn1CC(=O)Nc1ccc(Cl)cn1,-1.05
10,O=C(CSc1nc2ccccc2[nH]1)N=Nc1c(O)[nH]c2ccccc12,10.9
11,CCOc1ccc(-c2cc(C(=O)NN)[nH]n2)cc1,2.32
12,Cc1ccc(NC(=O)Cc2ncc(C(F)(F)F)cc2Cl)cc1Cl,-1.28
13,Clc1ccc(-c2nc(-c3ccccn3)no2)cc1Cl,3.92
14,CCOc1ccc(Nc2nc(-c3sc(N)nc3C)cs2)cc1,15.1
15,O=C(Nc1ncc(Cc2ccccc2Cl)s1)C1CCCO1 (stereo not drawn),14.2
16,CC(C)C(C)(C#N)NC(=O)CSc1nnc(-c2ccccc2)o1 (stereo not drawn),0.833
17,CCN(C(=O)CSc1ncn[nH]1)c1cccc2ccccc12,7.22
18,O=C(CCc1nnc2ccc(N3CCCC3)nn12)Nc1ccc(F)c(F)c1,10.1
19,CCC1Sc2ccccc2N(CC(=O)NC2CCCC2)C1=O (stereo not drawn),8.72
